Measurements from paper PMC3873466 (PLoS ONE, 2013).

Columns and labels:
Experiment in all cases: biochemical
[1] = molecular target: E. faecalis ParE (full length) (Enterococcus faecalis, UniProt H7C794)
[2] = molecular target: E. coli ParE (full length) (Escherichia coli, UniProt P20083)
[3] = molecular target: E. faecalis GyrB (full length) (Enterococcus faecalis, UniProt Q839Z1)
UniProt Q839Z1, sequence (Q839Z1 whole entry): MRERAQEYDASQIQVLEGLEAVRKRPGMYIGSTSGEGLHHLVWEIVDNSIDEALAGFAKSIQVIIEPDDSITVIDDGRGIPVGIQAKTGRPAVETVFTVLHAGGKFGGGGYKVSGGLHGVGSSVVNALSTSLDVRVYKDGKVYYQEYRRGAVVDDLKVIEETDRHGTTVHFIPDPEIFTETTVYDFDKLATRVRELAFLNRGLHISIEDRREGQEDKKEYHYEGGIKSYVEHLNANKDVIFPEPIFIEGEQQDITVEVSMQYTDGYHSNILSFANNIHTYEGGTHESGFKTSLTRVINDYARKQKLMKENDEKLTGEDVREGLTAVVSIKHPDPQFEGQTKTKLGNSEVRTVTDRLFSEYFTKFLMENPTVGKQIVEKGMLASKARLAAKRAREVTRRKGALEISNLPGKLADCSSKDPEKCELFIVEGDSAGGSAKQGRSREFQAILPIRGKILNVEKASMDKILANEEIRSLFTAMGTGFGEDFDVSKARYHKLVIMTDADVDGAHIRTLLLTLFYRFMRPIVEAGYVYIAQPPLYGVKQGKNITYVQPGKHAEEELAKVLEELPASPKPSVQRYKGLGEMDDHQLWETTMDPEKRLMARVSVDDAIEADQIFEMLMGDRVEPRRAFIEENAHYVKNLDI

UniProt P20083, sequence (P20083 whole entry): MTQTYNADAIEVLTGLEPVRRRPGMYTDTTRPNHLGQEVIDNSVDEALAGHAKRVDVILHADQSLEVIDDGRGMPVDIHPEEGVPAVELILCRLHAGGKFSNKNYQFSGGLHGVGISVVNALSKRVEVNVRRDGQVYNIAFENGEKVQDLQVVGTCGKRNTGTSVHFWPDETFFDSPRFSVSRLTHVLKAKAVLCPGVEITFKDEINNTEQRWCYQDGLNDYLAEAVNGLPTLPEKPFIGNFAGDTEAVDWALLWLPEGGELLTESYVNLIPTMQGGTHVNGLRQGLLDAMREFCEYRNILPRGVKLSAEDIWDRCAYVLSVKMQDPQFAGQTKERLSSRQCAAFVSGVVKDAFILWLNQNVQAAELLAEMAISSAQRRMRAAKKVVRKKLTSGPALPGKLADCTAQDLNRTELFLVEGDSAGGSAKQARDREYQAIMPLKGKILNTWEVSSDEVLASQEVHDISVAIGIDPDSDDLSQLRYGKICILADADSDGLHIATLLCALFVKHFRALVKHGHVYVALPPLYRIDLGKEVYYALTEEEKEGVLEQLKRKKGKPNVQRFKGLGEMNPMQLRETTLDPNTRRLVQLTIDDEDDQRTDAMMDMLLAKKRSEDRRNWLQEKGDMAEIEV
UniProt H7C794, sequence (H7C794 whole entry): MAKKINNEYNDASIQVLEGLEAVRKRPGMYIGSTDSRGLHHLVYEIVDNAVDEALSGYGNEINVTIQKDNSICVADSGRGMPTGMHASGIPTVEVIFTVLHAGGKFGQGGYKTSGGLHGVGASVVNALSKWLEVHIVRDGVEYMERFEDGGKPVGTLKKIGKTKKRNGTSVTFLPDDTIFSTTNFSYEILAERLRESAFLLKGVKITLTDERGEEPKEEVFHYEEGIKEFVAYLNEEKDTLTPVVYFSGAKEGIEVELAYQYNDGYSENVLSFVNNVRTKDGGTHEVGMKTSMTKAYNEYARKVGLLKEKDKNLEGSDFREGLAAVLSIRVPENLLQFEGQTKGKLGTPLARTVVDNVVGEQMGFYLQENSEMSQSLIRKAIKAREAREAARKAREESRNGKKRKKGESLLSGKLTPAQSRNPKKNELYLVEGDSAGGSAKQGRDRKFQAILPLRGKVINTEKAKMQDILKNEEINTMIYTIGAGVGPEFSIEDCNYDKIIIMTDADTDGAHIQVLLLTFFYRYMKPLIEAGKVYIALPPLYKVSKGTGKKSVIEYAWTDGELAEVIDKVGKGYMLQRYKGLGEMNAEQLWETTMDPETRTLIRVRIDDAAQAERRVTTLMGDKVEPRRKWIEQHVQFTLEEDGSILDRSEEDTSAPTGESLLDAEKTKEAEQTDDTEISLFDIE

## CNc1cc(F)cc2c1[nH]c1nc(Oc3cnc(C)nc3)nc(N3C[C@H]4CCN[C@H]4C3)c12 [C3, 6-fluoro-4-((3aR,6aR)-hexahydropyrrolo[3,4-b]pyrrol-5(1H)-yl)-N-methyl-2-((2-methylpyrimidin-5-yl)oxy)-9H-pyrimido[4,5-b]indol-8-amine]
[1]
  pKi: > 9.52
[2]
  pKi: > 10.00
[3]
  pKi: > 9.52

pKi: −log10 of the molar value.
